PubChem BioAssay AID1508624 (National Center for Advancing Translational Sciences (NCATS), 2021)
In all, about 48,000 compounds went through this assay and about 120 (0.25%) were called active. Not shown: some 4% with an inconclusive outcome. Calls follow the shape of the dose curve; as a rule, active = well fitted activation curve with a large enough effect; inconclusive = small, poorly fitted or top-dose-only effect, or another doubt; inactive = no such curve, though single readings can be large or run the other way. Some of the results follow.

Experiment: Primary qHTS for Identification of Small Molecule Activators of Huntingtin-Antisense Promoter Activity; also: nearly all actives have a fitted effect of over 55% in size
Settings: HEK293 HTT-AS promoter firefly luciferase reporter (activity 0% = vehicle and -100% = no light), 24 h; series mostly up to 57.5 µM; activity change, positive = activation: at the top concentration
Summary of the method: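 Firefly luciferase signal from promoter-reporter HEK293 cells was scaled between vehicle (0%) and zero RLU (-100%). Compounds were tested at final concentrations of up to 57.5 uM over 24 h at 37 degrees C. PTC124 at 50 uM final served as control inhibitor.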

| Structure (SMILES) | activity change, positive = activation |
| --- | --- |
| COc1ccc(NC(=O)C2CCCN(c3ncnc4onc(C)c34)C2)cc1OC (configuration not stated) | inactive: -19.6% |
| CCC(CN)=C(c1ccccc1)c1ccccc1 | inactive: -9.65% |
| CCc1ccccc1N1C(=O)CN(S(=O)(=O)CC)CC1(C)C(=O)NC1CCCCC1 (configuration not stated) | inactive: -16.2% |
| CCC(=O)OC1=C(C(C)=O)N(Cc2ccccc2)S(=O)(=O)c2ccccc21 | inactive: -5.1% |
| NC(=O)c1c(OCc2c(F)cc(Br)cc2F)nsc1NC(=O)NCCCCN1CCCC1 | inactive: -22.6% |
| CCc1ccccc1NC(=O)Cn1nc(CC)n2c(cc3sccc32)c1=O | inactive: -7.11% |
| NC(=O)c1ccc([N+](=O)[O-])cc1Cl | inactive: -3.12% |
| COc1ccc(-c2cc(C(=O)N3CCCCC3C)no2)cc1OC (configuration not stated) | inactive: 12.6% |
| CCOc1ccc(OCC)c(NC(=O)c2nnn(CC(=O)Nc3cc(Cl)ccc3OC)c2N)c1 | inactive: -31.7% |
| NC(N)=NN=C(/C=C/c1ccc([N+](=O)[O-])o1)/C=C/c1ccc([N+](=O)[O-])o1 | inactive: -79.7% |
| COC(=O)C1=C(C)N(C(C)C)C(=O)C1(NC(=O)c1ccccc1OC)C(F)(F)F (configuration not stated) | inactive: -7.09% |
| COc1ccccc1CNC(=O)C(=O)NCC(c1ccco1)S(=O)(=O)c1ccc(C)cc1 (configuration not stated) | inactive: -14.4% |
| CCCCCn1c(CCCNC(=O)c2ccc(Cl)cc2)nc2ccccc21 | inactive: -27.1% |
| COc1ccc(CNC(=O)CCc2nnc3n(C)c(=O)c4sccc4n23)cc1 | inactive: -8.22% |
| COc1ccc(-c2nc(C(=O)Nc3cccc(C(C)=O)c3)nn2-c2ccccc2Cl)cc1 | inactive: -29.5% |
| CCOc1cc(-c2nc(-c3ccc(-c4ccccc4)nc3OCC)no2)cc(OCC)c1OCC | inactive: -5.92% |
| COc1cc(OC)c(NC(=O)c2cnn(-c3ccccc3)c2-n2cccc2)cc1Cl | inactive: -13.4% |
| O=C(CSc1nccn1Cc1ccc(Cl)cc1)Nc1nc2ccccc2s1 | inactive: -2.62% |
| COCCCNC(=O)c1cc2c(-c3cccc(OC)c3)nn(C)c2s1 | inactive: -19% |
| CCC(=O)N1CCc2cc(Br)cc(S(=O)(=O)Nc3ccccc3C(=O)OC)c21 | inactive: -7.43% |
| Cc1ccccc1CCNC(=O)c1ccc(Cn2c(=O)c3cccn3c3cccnc32)cc1 | inactive: -31.8% |
| CCOC(=O)[C@H](CCc1ccccc1)N[C@H]1CS[C@H](c2cccs2)CN(CC(=O)O)C1=O | inactive |
| CCc1ccc(NC(=O)c2cc(S(=O)(=O)N3CCCC(C)C3)cn2C)cc1 (configuration not stated) | inactive: -24% |
| CCOc1ccc(CNC(=O)C2CCN(C(=O)c3ccc(-n4ccc5ccccc54)s3)CC2)cc1 | inactive: -22.3% |

| Structure (SMILES) | activity change, positive = activation |
| --- | --- |
| CCOc1ccc(Nc2cc(C(=O)NCc3ccccc3Cl)c3ccccc3n2)cc1 | inactive: -14.3% |
| Cc1cccc(NC(=O)Cn2c(=O)n(CCCCCC(=O)NCc3ccccc3)c(=O)c3sccc32)c1 | inactive: -18.8% |
| CCOC(=O)N1CCN(C(=O)c2ccc3c(c2)N(Cc2ccccc2F)C(=O)c2ccccc2S3(=O)=O)CC1 | inactive: -19.5% |
| CCc1ccc(NC(=O)CSc2nc3c(c(=O)[nH]2)CN(Cc2ccc4c(c2)OCO4)CC3)cc1 | inactive: 0% |
| O=C(COc1ccccc1)NCC(c1ccc(Cl)cc1)N1CCCCC1 (configuration not stated) | inactive: -14.5% |
| Cc1ccc(C)c(N2CCN(S(=O)(=O)c3c(C(=O)N4CCC(C)CC4)c(C)n(C)c3C)CC2)c1 | inactive: -23.9% |
| O=C(CCCc1ccccc1)NC1CC(=O)N(c2cccc(F)c2)C1 (configuration not stated) | inactive: -10.3% |
| O=C(Nc1ccc(Br)c(Cl)c1)c1ccc(C(=O)Nc2ccc(Br)c(Cl)c2)cc1 | inactive: -16% |
| CCOC(=O)c1cc2c(=O)n3ccccc3nc2n(C)c1=NC(=O)c1c(-c2c(F)cccc2Cl)noc1C | inactive: 7.01% |
| Cc1ccc(C)c(NC(=O)C2CCN(S(=O)(=O)c3c(C)noc3/C=C/c3cccs3)CC2)c1 | inactive: -24.2% |
| Cc1sc2c(c1C)c(=O)n(CCc1ccccc1)c(=O)n2Cc1ccc(C(C)(C)C)cc1 | inactive: 8.64% |
| CCn1c(CNC(=O)c2ccc(OC)cc2)nnc1SCC(=O)Nc1cc(C)ccc1C | inactive: -23.4% |
| COc1ccccc1C(=O)NCc1nc2cccnc2n1Cc1ccc(F)cc1 | inactive: -7.13% |
| COc1ccc(Cl)cc1NC(=O)CSc1nccn1-c1ccc(Cl)cc1 | inactive: -31.5% |
| CCOCN(C(=O)Cn1c(COC)nc2ccccc21)c1c(C)cccc1CC | inactive: -6% |
| COc1ccc(S(=O)(=O)N2Cc3ccccc3CC2C(=O)Nc2cc(Cl)ccc2Cl)cc1 (configuration not stated) | inactive: -27.3% |
| Cc1ccc(C)c(N2CCN(C(=O)c3cc(C)nc4c3c(C)nn4-c3ccccc3)CC2)c1 | inactive: -20.9% |
| COc1cc(CN(C(=O)COc2ccc(F)cc2)c2ccccn2)cc(OC)c1OC | inactive: -18.9% |
| CCOc1ccc(OCC(=O)Nc2ccc(S(=O)(=O)Nc3cc(C)on3)cc2)cc1 | inactive: -5.76% |
| COc1cc(NC(=O)CCN2CCN(CCO)CC2)cc(OC)c1 | inactive: 13.7% |
| CCc1nn(CC(=O)NCCc2ccc(SC)cc2)c(=O)c2cc3sccc3n12 | inactive: -15.9% |
| CCCc1cc(=O)n2[nH]c(NCc3c(F)cccc3Cl)nc2n1 | inactive: 2.62% |
| COc1ccc(N2CCN(S(=O)(=O)c3ccc4c(c3)C(C(C)C)C(=O)N4)CC2)cc1 (configuration not stated) | inactive: -31.1% |
